PubChem BioAssay AID2675 (National Center for Advancing Translational Sciences (NCATS), 2010)
Among all 280,000 compounds or so, about 100 (0.036%) were called active. The inconclusive results got no clear call from the source; some entries with a clear call stand among them for comparison. Calls follow the shape of the dose curve; as a rule, active = well fitted inhibition curve with a large enough effect in the signal ratio, with a control signal flat (not every such curve was filed as active); inconclusive = small, poorly fitted or top-dose-only effect, or effect the other way, or a change in a side signal; inactive = no such curve, though single readings can be large or run the other way; the % refers to the signal ratio. Potencies beside an inconclusive call are fits to weak or partial responses and may not hold up. A note “side channel” means that the fit belongs to a control or component signal, not to the main read-out.

biological target: Muscleblind-like protein 1 (Homo sapiens) (UniProt Q9NR56); experiment: qHTS Assay for Inhibitors of MBNL1-poly(CUG) RNA binding; details: TR-FRET MBNL1-His/biotin-(CUG)12 binding, 665/545 ratio; activity change, negative = inhibition: at 57.5 µM (top of the series)
Sequence of UniProt Q9NR56 (Q9NR56 whole entry, looked up): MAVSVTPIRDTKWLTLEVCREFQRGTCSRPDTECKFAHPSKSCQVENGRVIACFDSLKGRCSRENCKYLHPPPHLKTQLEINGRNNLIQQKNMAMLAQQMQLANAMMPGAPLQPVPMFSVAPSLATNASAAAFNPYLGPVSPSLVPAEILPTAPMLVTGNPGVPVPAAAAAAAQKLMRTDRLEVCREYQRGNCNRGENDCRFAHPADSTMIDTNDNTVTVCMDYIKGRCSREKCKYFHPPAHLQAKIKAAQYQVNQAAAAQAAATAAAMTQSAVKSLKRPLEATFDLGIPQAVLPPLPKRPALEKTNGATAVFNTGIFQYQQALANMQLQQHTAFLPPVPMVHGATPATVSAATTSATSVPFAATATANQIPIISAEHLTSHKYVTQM
How it was run: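 MBNL1-His + Biotin-(CUG)12, cpd titration 92 nM–58 uM; Tb anti-His Ab 0.055 ng/ul, SA-XL665 5 nM (final); 60 min RT; ratiometric 665/545 nm, Ex 340 nm; normalized to buffer and full-complex controls.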
% is scaled to controls: 0 for no effect and ±100 for the full control effect; potency is read from the fitted curve at half-maximal effect; tags tell the direction and shape of the fitted curve or compound fluorescence and quenching.

| SMILES | Potency | activity change, negative = inhibition |
| --- | --- | --- |
| CC1=C(C(=O)NCc2ccc3c(c2)OCO3)C2(CCC(C)CC2)OC1=O (stereo unspecified) | inconclusive: 39.8 µM [quencher, side channel, single point] | – |
| O=C(Nc1nc2ccccc2[nH]1)c1ccccc1F | – | inactive: -3.55% |
| Cc1cc(C)n(CCC(=O)N/N=C/c2ccc(Br)c([N+](=O)[O-])c2)n1 | inconclusive: 11.2 µM [quencher, side channel, partial curve, poor fit] | – |
| CCc1c(C)c(C#N)c2nc3ccccc3n2c1-n1nc(C)cc1C | inconclusive: 17.8 µM [quencher, side channel, single point] | – |
| NC(=O)c1ccc(NC(=O)c2ccccc2S(=O)(=O)c2ccccc2[N+](=O)[O-])cc1 | inconclusive: 17.8 µM [quencher, side channel, partial curve] | – |
| O=C(NNC(=O)c1ccccc1[N+](=O)[O-])c1cccs1 | inconclusive: 14.1 µM [quencher, side channel, partial curve] | – |
| CC(=O)Nc1cc(ON=C(C)C)cc([N+](=O)[O-])c1 | inconclusive: 3.98 µM [quencher, side channel, partial curve] | – |
| NNC(=O)c1ccc(N2CCc3ccccc32)c([N+](=O)[O-])c1 | inconclusive: 14.1 µM [quencher, side channel, partial curve] | – |
| Cc1ccc(-c2cnc(N)n2C)cc1C | – | inactive: -1.72% |
| Cc1nn2c(-c3ccncc3)ccnc2c1Cl | inconclusive: 17.8 µM [quencher, side channel, partial curve] | – |
| CCOC(=O)c1c(NC(=O)c2ccc(N3C(=O)[C@@H]4[C@H](C3=O)[C@H]3C=C[C@@H]4C3)cc2)sc2c1CCCC2 | inconclusive: 1 µM [fluorescent, side channel, partial curve] | – |
| CCN(CC)CCN(Cc1cc2cc3c(cc2[nH]c1=O)OCCO3)C(=S)NCC1CCCO1 (stereo unspecified) | inconclusive: 35.5 µM [quencher, side channel, single point] | – |
| Cc1cc(C)c[n+](-c2[nH]c(=O)sc2/C=N/N=C(\N)[S-])c1 | inconclusive: 28.2 µM [quencher, side channel, partial curve] | – |
| Cc1cc2c(cc1C)NC(c1c(C)n(C)n(-c3ccccc3)c1=O)C1=C(CC(C)(C)CC1=O)N2 (stereo unspecified) | inconclusive: 11.2 µM [quencher, side channel, partial curve] | – |
| Cc1ccc(OCC(O)Cn2c(=N)n(Cc3ccccc3)c3ccccc32)cc1 (stereo unspecified) | – | inactive: -2.53% |
| Cc1ccccc1-n1c(SCc2cc(=O)n3ccccc3n2)nc2[nH]ncc2c1=O | inconclusive: 14.1 µM [quencher, partial curve] | – |
